From PubChem BioAssay AID1508649 (National Center for Advancing Translational Sciences (NCATS), 2021)
Among all 43,000 compounds or so, about 830 (1.9%) were called active. Inconclusive results, whose numbers are uncertain, are shown with a selection of clear calls. The calls were made as follows: active = clear falling dose curves in both reporters; inconclusive = both reporters move, but less clearly or upward; inactive = either reporter flat; the % is the NLuc reporter signal. Potencies of inconclusive entries are left out as doubtful fits.

Test: Cell-based coincidence reporter assay to measure PMP22 gene transcription in S16 Pmp22-F2sN cells - Primary screen
Conditions: S16 Pmp22-F2sN Schwann cells (luciferase reporters placed in the Pmp22 gene), FLuc/NLuc coincidence luminescence, 24 h; measured here: NLuc reporter readout, at 57.5 µM (top of the series)
In short: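 qHTS, 1536-well. Cells seeded, compounds added by pin tool, 24 h 37C. Nano-Glo reagent 1 (lysis/FLuc), 10 min RT, read; Stop&Glo, 10 min RT, read NLuc.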
Potency is read from the fitted curve at half-maximal effect; tags tell the direction and shape of the fitted curve.

Compound | Potency
COC(=O)c1cc(C)nc2c1c(=O)nc(SCc1cc(C)ccc1C)n2C1CC1 | inconclusive [phenotype inactive, single point]
Cc1cc(C)cc(N(C)S(=O)(=O)c2nnc(NC(=O)COc3ccc(C)c(C)c3)s2)c1 | inconclusive [phenotype inactive, single point]
CCn1c(CN2CCN(c3cccc(Cl)c3)CC2)nc2c1c(=O)[nH]c(=O)n2C | inconclusive [phenotype inactive, single point]
Cc1ccc(CC(=O)N(Cc2nc(-c3ccc(C)cc3)no2)C(C)C)cc1 | inconclusive [phenotype inactive, single point]
Cc1ccc(C)c(N2CCN(C(=O)c3cccc(-n4c(C)nc5cccnc54)c3)CC2)c1 | inconclusive [phenotype inactive, single point]
CCCCNc1sc(S(=O)(=O)CC)nc1S(=O)(=O)c1ccc(C)cc1 | inactive
Cc1ccc(C(=O)Nc2cccc(C(=O)OCc3cc(=O)n4c5c(sc4n3)CCCC5)c2)cc1 | inconclusive [phenotype inactive, single point]
COc1ccc(N2CCN(C(=O)Cc3c(C(=O)O)c(C)cn3C)CC2)cc1 | inconclusive [phenotype inactive, single point]
CCOC(=O)c1cccc(NC(=O)Cn2c(=O)nc(-c3ccccc3)c3ccccc32)c1 | inconclusive [phenotype inactive, partial curve]
Cc1ccc(OCC(=O)Nc2ccc3nc(SCc4ccccc4)sc3c2)cc1 | inactive
COc1ccc(N2CCN(C(=O)c3nc(SC)ncc3Cl)CC2)cc1 | inactive
CCOc1ccc(OCC)c(NC(=O)CN(C)S(=O)(=O)c2ccc3c(c2)CCCC(=O)N3)c1 | active: 20 µM
Cc1ccc(C(=O)NCC(c2cccs2)S(=O)(=O)c2cccs2)cc1 (stereo not drawn) | inconclusive [phenotype inactive, single point]
CCN(CC)S(=O)(=O)c1cc(-c2onc(C)c2C)ccc1OC | inconclusive [phenotype inactive, single point]
O=C(CSc1nccn1Cc1ccc(F)cc1)Nc1ccc2c(c1)OCCO2 | inactive
O=C(NCC(c1cccnc1)N1CCc2ccccc21)c1cccc(C(F)(F)F)c1 (stereo not drawn) | inconclusive [phenotype inactive, partial curve, poor fit]
CCN(CCCNC(=O)c1cc2c(=O)n(CC)c3ccccc3c2s1)c1ccccc1 | inconclusive [phenotype inactive, partial curve, poor fit]
COCCCNC(=O)c1c(NC(=O)Cc2coc3cc(C)cc(C)c23)sc2c1CCCC2 | inconclusive [phenotype inactive, single point]
COc1ccc(OC)c(CNC(=O)Cc2ccc(NC(=O)N3CCCCc4ccccc43)cc2)c1 | inconclusive [phenotype inactive, single point]
CCN(CC)C(=O)c1sc2c(c1C)c(=O)n(-c1ccc(Cl)c(Cl)c1)c(=O)n2Cc1cc(=O)n2c(C)cccc2n1 | inactive
Cc1ccc(C)c(N2CCN(C(=O)c3ccc(CS(=O)(=O)c4ccc(Br)cc4)o3)CC2)c1 | inconclusive [phenotype inactive, partial curve]
CCCN(C(=O)CCc1nc(-c2ccccc2F)no1)c1ccc(CC)cc1 | inconclusive [phenotype inactive, single point]
Cc1ccc(CNC(=O)c2c3c(nc4ccccc24)C(=O)N(C2CCCCC2)C3)cc1 | inconclusive [phenotype inactive, single point]
Cc1cccc(C)c1OCc1nc2c3cnn(-c4cccc(F)c4)c3ncn2n1 | inconclusive [phenotype inactive, single point]
Cc1cc(-c2ccc(C)c(S(=O)(=O)N3CCN(c4cccc(C(F)(F)F)c4)CC3)c2)on1 | inactive
Cc1cccc(NC(=O)CSc2ncc3c(n2)-c2ccccc2N(Cc2ccc(F)cc2)S3(=O)=O)c1C | inconclusive [phenotype inactive, single point]

Compound | Potency
CCCC1=Nc2cc(C(=O)NCc3ccc(OC)cc3)ccc2Sc2ccc(C)cc21 | inconclusive [phenotype inactive, partial curve, poor fit]
COc1ccc(-c2cc3nc(C)c(CCC(=O)Nc4ccccc4C(C)=O)c(C)n3n2)c(OC)c1 | inactive
CCOc1ccc(C(=O)Nc2ccc3nc(SCCOc4ccccc4)sc3c2)cc1 | active: 10.6 µM
CCN(CC)CCCNC(=O)c1ccc2c(=O)n(CCc3ccccc3)c(=O)[nH]c2c1 | inconclusive [phenotype inactive, single point]
COC(=O)c1cc(S(=O)(=O)N2CCN(c3cccc(C)c3)C(C)C2)cn1C (stereo not drawn) | inactive
CCN(CC)CCCNC(=O)c1ccc(-c2nc(CN3CCc4ccccc43)c(C)o2)cc1 | inconclusive [phenotype inactive, single point]
Cc1cccc(OCC(=O)Nc2ccc(Cl)c(-c3nc4ncccc4o3)c2)c1C | inconclusive [phenotype inactive, single point]
Cc1ccc2nc(N3CCC(C(=O)N4CCN(c5cccc(Cl)c5)CC4)CC3)[nH]c2c1 | inconclusive [phenotype inactive, partial curve]
Cc1ccc(-n2ncc(C(=O)NCc3cccs3)c2C2CCN(C(=O)OC(C)(C)C)CC2)c(C)c1 | inconclusive [phenotype inactive, partial curve]
CCN(c1ccccc1)c1nnc(NC(=O)Nc2ccccc2F)s1 | inconclusive [phenotype inactive, single point]
COc1ccc(Br)cc1CNC(=O)c1cc2n(n1)CCCN(Cc1ccc(C)cc1)C2=O | inconclusive [phenotype inactive, single point]
Cc1ccc(NS(=O)(=O)c2ccc3c(c2)n(C)c(=O)n3C)c(C)c1 | inconclusive [phenotype inactive, single point]
COC(=O)c1scc(-c2ccc(C)cc2)c1S(=O)(=O)Nc1cc(C)c(Cl)cc1OC | inconclusive [phenotype inactive, single point]
Cc1c(CNC2CCCCCC2)c(C(=O)O)c(C)n1Cc1cccc(Cl)c1 | inactive
CCOc1ccc(CNC(=O)c2ccc(NC(=O)N3CCCCc4ccccc43)cc2)cc1 | inactive
COc1ccc(NC(=O)c2ccco2)cc1NC(=O)c1ccccc1[N+](=O)[O-] | inconclusive [phenotype inactive, full curve, poor fit]
Cc1ccc(NC(=O)Cn2c(=O)n(Cc3ccccc3)c(=O)c3c(C)c(C(=O)N(C)C)sc32)c(C)c1 | inactive
O=C(Nc1cccc(F)c1)c1cnc2sc(N3CCCC3)nn2c1=O | inactive
COc1ccc(C)c2sc(N(Cc3cccnc3)C(=O)c3cccs3)nc12 | inconclusive [phenotype inactive, single point]
CCOC(=O)c1c(C)oc2nc(C)nc(NCCc3ccc(Cl)cc3)c12 | inactive
COc1ccc(CCNS(=O)(=O)c2c(C)nc3sc(C)cn3c2=O)cc1OC | inactive
Cc1cccc(N(C)C(=O)CCS(=O)(=O)c2ccc3c(c2)n(C)c(=O)c(=O)n3C)c1 | inactive
CCc1cccc(NC(=O)c2ccc3c(c2)N(Cc2cccc(Cl)c2)C(=O)c2ccccc2S3=O)c1 (stereo not drawn) | inconclusive [phenotype inactive, single point]
CCOc1ccc(NC(=O)c2sc(-n3nc(C)c(Cc4ccc(Cl)cc4)c3C)nc2C)cc1 | inconclusive [phenotype inactive, single point]
O=C(Cn1ncc2c3ccccc3n(Cc3ccccc3)c2c1=O)NCc1ccccn1 | inactive
CCOc1ccccc1NC(=O)CCS(=O)(=O)c1ccc2c(c1)oc(=O)n2C | inactive

Compound | Potency
COc1ccc(CNC(=O)CCCn2ccc3cc(S(=O)(=O)N4CCCC4)ccc32)cc1 | inconclusive [phenotype inactive, single point]
COc1ccc(C(=O)Nc2nc3c(s2)Cc2c(Br)ccc(OC)c2-3)cc1OC | inconclusive [phenotype inactive, partial curve, poor fit]
CCN(CC)S(=O)(=O)c1cc(-c2ccc(=O)n(C(C)C(=O)Nc3cccc(C#N)c3)n2)ccc1C (stereo not drawn) | inconclusive [phenotype inactive, single point]
COc1ccc(Cn2ccc3nc(C)c(C(=O)N4CCN(c5ccc(F)cc5)CC4)cc3c2=O)cc1 | inconclusive [phenotype inactive, single point]
CCCCN1C(=O)c2[nH]nc(-c3ccccc3O)c2C1c1ccc(OCc2ccccc2)c(OC)c1 (stereo not drawn) | inconclusive [phenotype inactive, single point]
CCC1CN(C(=O)NCc2ccc(F)cc2)c2cc(C)ccc2O1 (stereo not drawn) | inactive
COc1ccc(NCc2cc3ccc(OC)cc3n(CC(=O)Nc3ccc(C)c(C)c3)c2=O)cc1 | inconclusive [phenotype inactive, partial curve, poor fit]
CSc1ccc(C2c3c(-c4ccccc4O)n[nH]c3C(=O)N2Cc2ccncc2)cc1 (stereo not drawn) | inconclusive [phenotype inactive, single point]
CCOC(=O)c1cnc2c(C)cc(C)cc2c1NCCN1CCOCC1 | inconclusive [phenotype inactive, single point]
CN1C(=O)c2ccccc2Sc2ccc(NC(=O)Cc3ccc(Cl)cc3)cc21 | inconclusive [phenotype inactive, single point]
CCOC(=O)c1ccc2c(c1)N(Cc1cc(C)ccc1C)C(=O)c1ccccc1S2(=O)=O | inconclusive [phenotype inactive, single point]
COC(=O)c1ccccc1NC(=O)NCc1ccc2c(c1)CCN2C(=O)c1ccccc1 | inconclusive [phenotype inactive, partial curve, poor fit]
Cc1ccc(S(=O)(=O)c2nc(-c3cccs3)oc2N2CCC(C)CC2)cc1 | inconclusive [phenotype inactive, single point]
Clc1cccc(Nc2ncnc3c2nc2n3CCCCC2)c1 | inconclusive [phenotype inactive, single point]
CCc1ccc(NC(=O)c2cc(=O)c3ccc(C)c(C)c3o2)cc1 | active: 16.3 µM
Cc1ccc(-n2ncc(C(=O)NCCN3CCC(Cc4ccccc4)CC3)c2C2CCN(C(=O)OC(C)(C)C)CC2)cc1 | inconclusive [phenotype inactive, single point]
COc1ccc(C(C)=O)cc1CSc1nc(Nc2ccc(F)c(F)c2)c2ccccc2n1 | active: 17.8 µM
COc1cccc(N2CCN(C(=O)c3ccc4nc(N5CCC(C)CC5)sc4c3)CC2)c1 | inactive
COc1ccccc1-c1nn(CCC(=O)Nc2ccc(C)cc2)c2nc(C)cc(C)c12 | inconclusive [phenotype inactive, single point]
COc1cccc(NC(=O)C(C)n2c(=O)cc(C(F)(F)F)c3c(C)nn(C)c32)c1 (stereo not drawn) | inconclusive [phenotype inactive, single point]
Cc1ccc(C)c(N2CCN(CCCNC(=O)c3cnn(-c4cccc(Cl)c4)c3C3CCN(C(=O)OC(C)(C)C)CC3)CC2)c1 | inconclusive [phenotype inactive, single point]
O=C(CCn1cnc2onc(-c3ccc(F)cc3)c2c1=O)Nc1cccc(C(F)(F)F)c1 | inconclusive [phenotype inactive, single point]
CCc1ccccc1N(CC)C(=O)c1cc2c(s1)-c1ccccc1SC2 | inconclusive [phenotype inactive, single point]
CCOc1ccccc1C(=O)Nc1cccc(-c2nc3ccccc3s2)c1 | inactive
Cc1ccc(C(=O)NCCc2csc(-c3cccc(F)c3)n2)cc1C | inconclusive [phenotype inactive, partial curve]
Cc1cc(=O)n2nc(N3CCC(C(=O)Nc4ccc(Br)c(C)c4)CC3)sc2n1 | active: 15 µM
